Data taken from the supplement of paper PMC6089552.
Hit rate of the full screen: of about 3,200 compounds, about 300 (9.4%) showed activity. The entries are a selection whose mix differs from that of the whole data set.

System: A673/TR/shEF
Experiment: cell viability (LOESS-normalised, relative to median of negative controls) (log2 ratio); higher = more viable cells (less compound effect), active = hit call of the paper (over 3 MAD below the median)
Conditions: treatment time: 72 h
Outline: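 A673/TR/shEF Ewing sarcoma cells (1,500 per well, 384-well plates) were grown with or without doxycycline to induce EWS-FLI1 shRNA knockdown, starting 24 h before compounds. Library compounds at two or more concentrations, with DMSO controls, were added for three days. Cell viability was read by CellTiter-Glo luminescence on an Envision reader, then LOESS-corrected per plate, divided by the median of negative controls and log2-transformed. Hits were wells at least three median absolute deviations from the median of all screened wells.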

[1] = 0.25 µM, library screen: screen2, EWS-FLI1 expression: high (no doxycycline)
[2] = 0.25 µM, library screen: screen2, EWS-FLI1 expression: low (doxycycline-induced shRNA knockdown)
[3] = 2.5 µM, library screen: screen2, EWS-FLI1 expression: high (no doxycycline)
[4] = 2.5 µM, library screen: screen2, EWS-FLI1 expression: low (doxycycline-induced shRNA knockdown)
[5] = 0.103 µM, library screen: screen3, EWS-FLI1 expression: high (no doxycycline)
[6] = 0.103 µM, library screen: screen3, EWS-FLI1 expression: low (doxycycline-induced shRNA knockdown)
[7] = 0.308 µM, library screen: screen3, EWS-FLI1 expression: high (no doxycycline)
[8] = 0.308 µM, library screen: screen3, EWS-FLI1 expression: low (doxycycline-induced shRNA knockdown)
[9] = 0.926 µM, library screen: screen3, EWS-FLI1 expression: high (no doxycycline)
[10] = 0.926 µM, library screen: screen3, EWS-FLI1 expression: low (doxycycline-induced shRNA knockdown)
[11] = 2.8 µM, library screen: screen3, EWS-FLI1 expression: high (no doxycycline)
[12] = 2.8 µM, library screen: screen3, EWS-FLI1 expression: low (doxycycline-induced shRNA knockdown)
[13] = 8.3 µM, library screen: screen3, EWS-FLI1 expression: high (no doxycycline)
[14] = 8.3 µM, library screen: screen3, EWS-FLI1 expression: low (doxycycline-induced shRNA knockdown)
[15] = 25 µM, library screen: screen3, EWS-FLI1 expression: high (no doxycycline)
[16] = 25 µM, library screen: screen3, EWS-FLI1 expression: low (doxycycline-induced shRNA knockdown)
[17] = 0.25 µM, library screen: screen1, EWS-FLI1 expression: high (no doxycycline)
[18] = 0.25 µM, library screen: screen1, EWS-FLI1 expression: low (doxycycline-induced shRNA knockdown)
[19] = 2.5 µM, library screen: screen1, EWS-FLI1 expression: high (no doxycycline)
[20] = 2.5 µM, library screen: screen1, EWS-FLI1 expression: low (doxycycline-induced shRNA knockdown)
[21] = 0.025 µM, library screen: screen2, EWS-FLI1 expression: high (no doxycycline)
[22] = 0.025 µM, library screen: screen2, EWS-FLI1 expression: low (doxycycline-induced shRNA knockdown)
[23] = 25 µM, library screen: screen2, EWS-FLI1 expression: high (no doxycycline)
[24] = 25 µM, library screen: screen2, EWS-FLI1 expression: low (doxycycline-induced shRNA knockdown)

Measured: cell viability (log2)

NCC(O)(CS(=O)(=O)O)c1ccc(Cl)cc1 (centres undefined)
inactive: [1] 0.186 | [2] 0.112 | [3] 0.0614 | [4] 0.0856

C[C@@H](N)C1CCC(C(=O)Nc2ccncc2)CC1 (some centres undefined)
inactive: [5] 0.00732 | [6] 0.0567 | [7] 0.0221 | [8] 0.0171 | [9] 0.0405 | [10] 0.0637 | [11] 0.092 | [12] 0.0378 | [13] 0.114 | [14] 0.124 | [15] 0.2 | [16] 0.112

CC(=O)CCCCn1c(=O)c2c(ncn2C)n(C)c1=O
inactive: [17] 0.0478 | [18] 0.0111 | [1] 0.0385 | [2] 0.102 | [19] 0.139 | [20] 0.0534 | [3] 0.0323 | [4] 0.0176

C[C@@H]1CC[C@@]2(OC1)O[C@H]1C[C@H]3[C@@H]4CC[C@H]5C[C@@H](O)CC[C@]5(C)[C@H]4CC(=O)[C@]3(C)[C@H]1[C@@H]2C
inactive: [17] 0.102 | [18] -0.00894 | [19] 0.127 | [20] 0.0766

COc1ccccc1CNC(=O)CN(c1ccc(Cl)cc1)S(C)(=O)=O
inactive: [17] -0.0129 | [18] 0.0689 | [19] 0.0751 | [20] 0.0379

C[C@H]1O[C@@H](n2cc(F)c(=O)[nH]c2=O)[C@H](O)[C@@H]1O
active: [17] -0.21 | [19] -1.24 | [3] -0.257 | [23] -2.97 | [24] -0.654
inactive: [21] 0.0333 | [22] 0.0231 | [18] 0.08 | [1] -0.00269 | [2] 0.0834 | [20] -0.0424 | [4] 0.0331

CC1(C)CC[C@]2(C(=O)O)CC[C@]3(C)C(=CC[C@@H]4[C@@]5(C)CC[C@H](O)C(C)(C)[C@@H]5CC[C@]43C)[C@@H]2C1
inactive: [17] 0.00326 | [18] 0.0504 | [19] 0.0878 | [20] 0.0225

CC(C)NC[C@H](O)COc1cccc2ccccc12
inactive: [1] 0.141 | [2] 0.0581 | [3] 0.131 | [4] 0.11

O=C(O)c1ccc(S(=O)(=O)N(Cl)Cl)cc1
inactive: [17] 0.0996 | [18] 0.0431 | [19] 0.144 | [20] 0.0571

O=C(Oc1ccccc1C(=O)O)c1ccccc1O
inactive: [17] 0.055 | [18] 0.0517 | [19] 0.0888 | [20] 0.06

COc1c(C)c2c(c(O)c1C/C=C(\C)CCC(=O)O)C(=O)OC2
active: [23] -0.533 | [24] -0.259 | [15] -0.488 | [16] -0.403
inactive: [21] 0.0161 | [22] 0.0434 | [5] 0.108 | [6] 0.173 | [17] 0.047 | [18] -0.0419 | [1] 0.0974 | [2] 0.108 | [7] 0.00407 | [8] 0.0569 | [9] 0.0822 | [10] 0.0245 | [19] 0.0367 | [20] 0.00349 | [3] 0.137 | [4] -0.00198 | [11] 0.147 | [12] 0.096 | [13] -0.0618 | [14] -0.0369
